From PubChem BioAssay AID1345082 (National Center for Advancing Translational Sciences (NCATS), 2018)
About 4,000 (4.3%) of roughly 94,000 compounds were called active. This list was built around the results that the source calls inconclusive (neither active nor inactive); the mix of calls is not that of the screen. Calls come from the whole dose curve; as a rule, active = well fitted inhibition curve with a large enough effect; inconclusive = small, poorly fitted or top-dose-only effect; inactive = no such curve, though single readings can be large or run the other way. Where the call is inconclusive, the potency comes from a doubtful curve fit.

test: Cytotoxic Profiling in NIH 3T3 Cell Line of Diverse Libraries Using Quantitative High-Throughput Screening; conditions: NIH 3T3 viability, CellTiter-Glo ATP luminescence, 48-72 h; activity change, negative = cytotoxicity: at 96.7 µM (top of the series); series mostly up to 96.7 µM; note: nearly all actives have a fitted effect of over 55% in size
Outline: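 First NIH 3T3 cells are plated at 400 cells/well; next compound is pinned in; then plates incubate 48 or 72 hr at 37 °C; finally CellTiter-Glo is added and luminescence read after 10 min.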
% is set by controls: 0 for no effect and ±100 for the full control effect; potency is the fitted concentration of half-maximal effect; tags give direction and shape of the fitted curve.

| SMILES | Potency | activity change, negative = cytotoxicity | outcome |
| --- | --- | --- | --- |
| O=C(NCC1CC1)c1cccc(OC2CN(C3CCCCC3)C2)c1 | inconclusive: 44.7 µM [inhibitor, partial curve, poor fit] | – | – |
| COc1cccc(CN(C)C(=O)c2cn(Cc3ccc(Cl)cc3)nn2)c1 | inconclusive: 50.1 µM [inhibitor, partial curve, poor fit] | – | – |
| O=C(NCc1ccc(Cl)cc1)C1CCN(C(=O)c2ccc(-c3cncnc3)cc2)CC1 | inconclusive: 44.7 µM [inhibitor, partial curve, poor fit] | – | – |
| O=C(C1CCCN1[S+](=O)([O-])c1cccs1)N1CCCC1c1nc2ccncc2[nH]1 (stereo not drawn) | – | inactive: -8.62% | – |
| CCNC(=O)C(C)(C)Oc1nn(Cc2cccc(Cl)c2)c2ccccc12 | inconclusive: 56.2 µM [inhibitor, partial curve, poor fit] | – | – |
| COC(=O)c1ccc2nc(C[C@@H]3C[C@@H](C(C)C)[C@H](CNC(=O)CN(C)C)C=C3C)[nH]c2c1 | inconclusive: 44.7 µM [inhibitor, partial curve, poor fit] | – | – |
| CN1CC(=O)N(C2CCCCC2)Cc2c(NC3CCCC3)ncnc21 | inconclusive: 56.2 µM [inhibitor, partial curve, poor fit] | – | – |
| O=C(c1ccc(F)cc1)N1CCC2(CC1)C(=O)NCN2Cc1ccc(Cl)cc1 | inconclusive: 44.7 µM [inhibitor, partial curve, poor fit] | – | – |
| CCOc1cccc(-c2nc(C(=O)NCC3CCCO3)cs2)c1 (stereo not drawn) | inconclusive: 50.1 µM [inhibitor, partial curve, poor fit] | – | – |
| CN(c1ccccc1)c1ccc2nnc(-c3cc(C(=O)NC4CCOCC4)ccn3)n2n1 | inconclusive: 7.94 µM [inhibitor, full curve, poor fit] | – | – |
| O=C(Nc1ccc(Cl)cc1)N1Cc2[nH]cnc2C[C@H]1c1nc(-c2ccc(F)c(Cl)c2)no1 | active: 25.1 µM | – | – |
| O=C(NC[C@H]1O[C@@H](CO)[C@@H](O)[C@H]1N1CCN(c2cccc(C(F)(F)F)c2)CC1)Nc1ccccc1 | inconclusive: 89.1 µM [inhibitor, single point] | – | – |
| COCc1nc(CCNC(=O)C2CC2)no1 | – | inactive: 2.55% | – |
| Cn1ncc(N2CCCC(CC(=O)Nc3ccc(F)c(F)c3)C2)cc1=O (stereo not drawn) | inconclusive: 44.7 µM [inhibitor, partial curve, poor fit] | – | – |
| CCOC(=O)[C@H]1CCOCC[C@H]1N(Cc1ccccc1)C(=O)OCC(C)C | inconclusive: 28.2 µM [inhibitor, partial curve] | – | – |
| COc1ccc(C(=O)N[C@@H]2CCC[C@@H]2C(=O)N2CCN(c3cc(C)ccc3C)CC2)cc1 | – | inactive: -17.1% | – |
| COc1ccc(NC(=O)CCn2ccn3nc4c(c3c2=O)CCCC4)cc1 | – | inactive: -23.3% | – |
| O=C(c1cccc(OC2CN(Cc3cccc(F)c3)C2)c1)N1CCOCC1 | – | – | inactive |
| COc1ccc(NC(=O)Nc2cnc3c(c2)CCC3)cc1 | inconclusive: 44.7 µM [inhibitor, partial curve, poor fit] | – | – |
| O=C(NCc1ccc(F)cc1)N1CC(c2nnc(-c3ccncc3)o2)C2(CCOCC2)C1 (stereo not drawn) | inconclusive: 79.4 µM [inhibitor, partial curve, poor fit] | – | – |
| CCOc1ccccc1C(=O)N1CCC(Cc2nc(-c3ccc(F)cc3)no2)CC1 | inconclusive: 11.2 µM [inhibitor, full curve, poor fit] | – | – |

| SMILES | Potency | activity change, negative = cytotoxicity | outcome |
| --- | --- | --- | --- |
| Cc1ccc2oc(=O)n(CCC(=O)N[C@@H]3COCC[C@@H]3OCC3CC3)c2c1 | – | inactive: -10.7% | – |
| Cc1ccc(CCCN2CCOc3ccc(C(=O)NCc4ccccc4F)cc3C2)o1 | inconclusive: 39.8 µM [inhibitor, partial curve] | – | – |
| COc1ccc(NC(=O)N2CCC(Oc3ccc(-c4noc(C5CC5)n4)cc3)C2)cc1 (stereo not drawn) | – | inactive: -20.8% | – |
| CNC(=O)c1cc(C)nc2onc(C3CCN(C(=O)c4ccc(OC)cc4)C3)c12 (stereo not drawn) | – | inactive: -1.39% | – |
| CCN1CCN(CCN2CC3(CCN(C(=O)[C@H](C)NC)CC3)OC2=O)CC1 | – | inactive: 0.304% | – |
| Cc1nc(-c2ccc(OC3CCN(C(=O)NC(C)C)C3)cc2)no1 (stereo not drawn) | – | inactive: -28.1% | – |
| COc1ccc(-c2ccc3c(n2)CN(Cc2ccccc2C)C(=O)CO3)cc1OC | inconclusive: 8.91 µM [inhibitor, full curve, poor fit] | – | – |
| O=C(COc1ccc(F)cc1)N1CC(c2noc(COc3ccccc3)n2)C1 | inconclusive: 44.7 µM [inhibitor, partial curve, poor fit] | – | – |
| COCC(=O)NC1CCCc2c1[nH]c1c(Cl)cccc21 (stereo not drawn) | – | inactive: -11.6% | – |
| O=C(Cc1ccccc1)N1CCC2(CC1)CC(N(Cc1ccc(F)cc1)C1CC1)CCO2 (stereo not drawn) | inconclusive: 44.7 µM [inhibitor, partial curve, poor fit] | – | – |
| N#Cc1ccc(-c2c(-c3ccccc3)ncn2CCNc2cccnc2)cc1 | – | inactive: -11.8% | – |
| COc1ccc(-c2c(C(=O)NCCCc3ccccc3)nc3sccn23)cc1 | active: 35.5 µM | – | – |
| COc1ccccc1C(=O)N1CCC2(CC1)OC(=O)N(Cc1ccccc1C#N)C2(C)c1ccccc1 (stereo not drawn) | – | inactive: -26.3% | – |
| O=C(c1ccc(Cl)nc1)N1CCCC(c2nn(-c3ccccn3)c(=O)[nH]2)C1 (stereo not drawn) | – | – | inactive |
| O=C1CC(c2ccccc2)N(C(=O)CNC(=O)c2[nH]nc3c2CCc2ccccc2-3)CCCCCN1 (stereo not drawn) | inconclusive: 50.1 µM [inhibitor, partial curve, poor fit] | – | – |
| CNc1nccc(N2CCC(CC(=O)N3CCN(c4cccc(OC)c4)CC3)CC2)n1 | inconclusive: 39.8 µM [inhibitor, partial curve, poor fit] | – | – |
| CCN1c2cc(C(=O)Nc3ccc(F)c(Cl)c3)ccc2C(=O)N2CCCC21 (stereo not drawn) | inconclusive: 50.1 µM [inhibitor, partial curve, poor fit] | – | – |
| CN(C)c1ccc(-c2nnc([C@H]3CCN(CC4CCCCC4)C3)o2)cc1 | inconclusive: 100 µM [inhibitor, partial curve, poor fit] | – | – |
| CCC(c1cn2cccnc2n1)n1ccnc1-c1cc2n(n1)CCCNC2 (stereo not drawn) | – | inactive: 2.04% | – |
| O=C(NCC(F)F)C1CCCN(Cc2cccc(-c3cccs3)c2)C1 (stereo not drawn) | inconclusive: 50.1 µM [inhibitor, partial curve, poor fit] | – | – |
| COCCN1C(=O)CCC2(C(=O)NCCN(C)C3CCCCC3)CCCC=C12 (stereo not drawn) | – | inactive: -29.7% | – |

| SMILES | Potency | activity change, negative = cytotoxicity | outcome |
| --- | --- | --- | --- |
| c1cncc(Nc2cc3c(cn2)CN(Cc2ccsc2)CCN3)c1 | inconclusive: 79.4 µM [inhibitor, partial curve, poor fit] | – | – |
| COc1ccccc1-c1cccc(CN2CCC(NC(=O)c3cccc(Cl)c3)CC2)c1 | inconclusive: 44.7 µM [inhibitor, partial curve, poor fit] | – | – |
| Cc1noc(-c2cccc(OC3CN(C(=O)NCc4ccccc4)C3)c2)n1 | inconclusive: 15.8 µM [inhibitor, full curve, poor fit] | – | – |
| CN(C)C[C@@H]1CN(S(C)(=O)=O)C[C@H]1NC(=O)c1ccc2nc[nH]c2c1 | – | inactive: 1.55% | – |
| Cc1ccc([S+](=O)([O-])N2CCCC(C(=O)N3CCC4(CC3)CC(=O)Nc3ccccc3O4)C2)cc1 (stereo not drawn) | inconclusive: 56.2 µM [inhibitor, partial curve, poor fit] | – | – |
| CC(C)CCN1CCC(N2CCN(S(=O)(=O)c3ccc(CC(C)C)cc3)CC2)C1=O (stereo not drawn) | inconclusive: 44.7 µM [inhibitor, partial curve, poor fit] | – | – |
| O=C(c1ccoc1)N1CCC(Cc2nc(-c3ccccc3)n[nH]2)C1 (stereo not drawn) | inconclusive: 70.8 µM [inhibitor, partial curve, poor fit] | – | – |
| CCN1CCN(CCNC(=O)c2cc(-c3ccc(Cl)cc3)cn2C)CC1 | inconclusive: 17.8 µM [inhibitor, full curve, poor fit] | – | – |
| COc1ccccc1-c1nnc2ccc(C(=O)NCc3cccc(Cl)c3)cn12 | inconclusive: 50.1 µM [inhibitor, partial curve, poor fit] | – | – |
| COc1cccc(CNC(=O)C2CCCN2Cc2ccc(-c3cncnc3)cc2)c1 (stereo not drawn) | inconclusive: 50.1 µM [inhibitor, partial curve, poor fit] | – | – |
| CC(=O)N1CC2(CCN(Cc3cc4ccccc4[nH]3)C2)Cc2ccccc21 (stereo not drawn) | inconclusive: 44.7 µM [inhibitor, partial curve, poor fit] | – | – |
| O=C(Nc1cccc(Cl)c1)c1nc2sccn2c1-c1cccnc1 | – | inactive: -7.63% | – |
| Cc1ccccc1-n1nc(C)c(CCC(=O)N(C)C(C)C)c1Oc1ccccc1F | inconclusive: 44.7 µM [inhibitor, partial curve, poor fit] | – | – |
| N#Cc1cccc(-c2c(C(=O)NC3CC3)nc3sccn23)c1 | – | – | inactive |
| Cc1cccc(CC(=O)NCC2Cn3cccc3C(=O)N2C)c1 (stereo not drawn) | – | inactive: -26.5% | – |
| COc1ccc(-c2noc([C@@H]3C[C@@H](O)CN3Cc3ccc(S(C)(=O)=O)cc3)n2)cc1 | – | inactive: -16.3% [at 174 µM] | – |
| COc1cccc(-c2nc(-c3c(C)noc3C)cc3c2cc(C)n3C)c1OC | active: 25.1 µM | – | – |
| O=C(NC1CC1)c1ccccc1OC1CN(Cc2cc(F)c(F)c(F)c2)C1 | inconclusive: 50.1 µM [inhibitor, partial curve, poor fit] | – | – |
| COc1ccc(CN2Cc3[nH]nc(-c4cccc(OC)c4)c3CC2=O)cc1 | inconclusive: 100 µM [inhibitor, partial curve, poor fit] | – | – |
| COc1ccc(C(=O)Nc2nc3c(s2)C[C@@H]2[C@](C)(CO)[C@H](O)CC[C@@]2(C)[C@@H]3CC(=O)NCc2ccccc2)cc1 | inconclusive: 44.7 µM [inhibitor, partial curve, poor fit] | – | – |
| O=[S+]([O-])(NC1CCCN(c2ccnc3ccnn23)C1)c1cccs1 (stereo not drawn) | inconclusive: 35.5 µM [inhibitor, full curve] | – | – |
